# From the supplement of paper PMC8728848
# The list shows a part of the results.
# B1: Siglec-9 (Homo sapiens), Q9Y336 (protein)
# chain: MLLLLLPLLWGRERAEGQTSKLLTMQSSVTVQEGLCVHVPCSFSYPSHGWIYPGPVVHGYWFREGANTDQDAPVATNNPARAVWEETRDRFHLLGDPHTKNCTLSIRDARRSDAGRYFFRMEKGSIKWNYKHHRLSVNVTALTHRPNILIPGTLESGCPQNLTCSVPWACEQGTPPMISWIGTSVSPLDPSTTRSSVLTLIPQPQDHGTSLTCQVTFPGASVTTNKTVHLNVSYPPQNLTMTVFQGDGTVSTVLGNGSSLSLPEGQSLRLVCAVDAVDSNPPARLSLSWRGLTLCPSQPSNPGVLELPWVHLRDAAEFTCRAQNPLGSQQVYLNVSLQSKATSGVTQGVVGGAGATALVFLSFCVIFVVVRSCRKKSARPAAGVGDTGIEDANAVRGSASQGPLTEPWAEDSPPDQPPPASARSSVGEGELQYASLSFQMVKPWDSRGQEATDTEYSEIKIHR
# Columns and labels:
# Experiment in all cases: glycan array binding signal (z-score within array); higher = stronger binding
# Settings in all cases: glycan notation: IUPAC condensed, linker removed
# Fuc(a1-2)Gal = molecular target: Fuc(a1-2)Gal
# Method in brief: (§1)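 Glycan array data were curated from 3228 arrays in the Consortium for Functional Glycomics database and kept only where the protein sequence was available. Glycan names were converted to IUPAC-condensed notation, and columns mapping to the same glycan were averaged. The binding signal is a within-array Z-score, averaged across arrays of the same protein sequence at different concentrations or buffers and across linkers. Negative Z-scores can be read as non-binding.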
# Fuc(a1-2)Gal(b1-3)GalNAc = molecular target: Fuc(a1-2)Gal(b1-3)GalNAc
# Method in brief: as §1
# [1] = molecular target: Fuc(a1-2)Gal(b1-3)GalNAc(a1-3)[Fuc(a1-2)]Gal(b1-4)Glc
# Method in brief: as §1
# [2] = molecular target: Fuc(a1-2)Gal(b1-3)GalNAc(a1-3)[Fuc(a1-2)]Gal(b1-4)GlcNAc
# Method in brief: as §1
# [3] = molecular target: Fuc(a1-2)Gal(b1-3)GalNAc(b1-3)Gal
# Method in brief: as §1
# [4] = molecular target: Fuc(a1-2)Gal(b1-3)GalNAc(b1-3)Gal(a1-4)Gal(b1-4)Glc
# Method in brief: as §1
# [5] = molecular target: Fuc(a1-2)Gal(b1-3)GalNAc(b1-4)[Neu5Ac(a2-3)]Gal(b1-4)Glc
# Method in brief: as §1
# Fuc(a1-2)Gal(b1-3)GlcNAc = molecular target: Fuc(a1-2)Gal(b1-3)GlcNAc
# Method in brief: as §1
# [6] = molecular target: Fuc(a1-2)Gal(b1-3)GlcNAc(b1-2)Man(a1-3)[Fuc(a1-2)Gal(b1-3)GlcNAc(b1-2)Man(a1-6)]Man(b1-4)GlcNAc(b1-4)GlcNAc
# Method in brief: as §1
# [7] = molecular target: Fuc(a1-2)Gal(b1-3)GlcNAc(b1-2)Man(a1-3)[Fuc(a1-2)Gal(b1-3)GlcNAc(b1-2)Man(a1-6)]Man(b1-4)GlcNAc(b1-4)[Fuc(a1-6)]GlcNAc
# Method in brief: as §1
# [8] = molecular target: Fuc(a1-2)Gal(b1-3)GlcNAc(b1-3)Gal(b1-4)Glc
# Method in brief: as §1
# [9] = molecular target: Fuc(a1-2)Gal(b1-3)GlcNAc(b1-3)GalNAc
# Method in brief: as §1
# [10] = molecular target: Fuc(a1-2)Gal(b1-3)GlcNAc(b1-3)[Fuc(a1-2)Gal(b1-3)GlcNAc(b1-6)]GalNAc
# Method in brief: as §1
# [11] = molecular target: Fuc(a1-2)Gal(b1-3)GlcNAc(b1-3)[Gal(b1-4)GlcNAc(b1-6)]Gal(b1-4)Glc
# Method in brief: as §1
# [12] = molecular target: Fuc(a1-2)Gal(b1-3)GlcNAc(b1-3)[Neu5Ac(a2-6)Gal(b1-4)GlcNAc(b1-6)]Gal(b1-4)Glc
# Method in brief: as §1
# [13] = molecular target: Fuc(a1-2)Gal(b1-3)GlcNAc6S
# Method in brief: as §1
# [14] = molecular target: Fuc(a1-2)Gal(b1-3)[Fuc(a1-4)]GlcNAc
# Method in brief: as §1
# [15] = molecular target: Fuc(a1-2)Gal(b1-3)[Fuc(a1-4)]GlcNAc(b1-2)Man(a1-3)[Fuc(a1-2)Gal(b1-3)[Fuc(a1-4)]GlcNAc(b1-2)Man(a1-3)]Man(b1-4)GlcNAc(b1-4)GlcNAc
# Method in brief: as §1
# [16] = molecular target: Fuc(a1-2)Gal(b1-3)[Fuc(a1-4)]GlcNAc(b1-2)Man(a1-3)[Fuc(a1-2)Gal(b1-3)[Fuc(a1-4)]GlcNAc(b1-2)Man(a1-6)]Man(b1-4)GlcNAc(b1-4)[Fuc(a1-6)]GlcNAc(b1-4)[Fuc(a1-6)]GlcNAc
# Method in brief: as §1
# [17] = molecular target: Fuc(a1-2)Gal(b1-3)[Fuc(a1-4)]GlcNAc(b1-3)[Fuc(a1-3)[Gal(b1-4)]GlcNAc(b1-6)]Gal(b1-4)Glc
# Method in brief: as §1
# [18] = molecular target: Fuc(a1-2)Gal(b1-3)[Fuc(a1-4)]GlcNAc(b1-3)[Gal(b1-4)GlcNAc(b1-6)]Gal(b1-4)Glc
# Method in brief: as §1
# [19] = molecular target: Fuc(a1-2)Gal(b1-4)Fuc(a1-3)]GlcNAc(b1-2)Man(a1-3)[Fuc(a1-2)Gal(b1-4)[Fuc(a1-3)]GlcNAc(b1-2)Man(a1-6)]Man(b1-4)GlcNAc(b1-4)GlcNAc
# Method in brief: as §1
# Fuc(a1-2)Gal(b1-4)Glc = molecular target: Fuc(a1-2)Gal(b1-4)Glc
# Method in brief: as §1
# Fuc(a1-2)Gal(b1-4)Glc6S = molecular target: Fuc(a1-2)Gal(b1-4)Glc6S
# Method in brief: as §1
# Fuc(a1-2)Gal(b1-4)GlcNAc = molecular target: Fuc(a1-2)Gal(b1-4)GlcNAc
# Method in brief: as §1
# [20] = molecular target: Fuc(a1-2)Gal(b1-4)GlcNAc(b1-2)Man
# Method in brief: as §1
# [21] = molecular target: Fuc(a1-2)Gal(b1-4)GlcNAc(b1-2)Man(a1-3)[Fuc(a1-2)Gal(b1-4)GlcNAc(b1-2)Man(a1-6)]Man(b1-4)GlcNAc(b1-4)GlcNAc
# Method in brief: as §1
# [22] = molecular target: Fuc(a1-2)Gal(b1-4)GlcNAc(b1-2)Man(a1-3)[Fuc(a1-2)Gal(b1-4)GlcNAc(b1-2)Man(a1-6)]Man(b1-4)GlcNAc(b1-4)[Fuc(a1-6)]GlcNAc
# Method in brief: as §1
# [23] = molecular target: Fuc(a1-2)Gal(b1-4)GlcNAc(b1-2)[Fuc(a1-2)Gal(b1-4)GlcNAc(b1-4)]Man(a1-3)[Fuc(a1-2)Gal(b1-4)GlcNAc(b1-2)Man(a1-6)]Man(b1-4)GlcNAc(b1-4)GlcNAc
# Method in brief: as §1
# [24] = molecular target: Fuc(a1-2)Gal(b1-4)GlcNAc(b1-3)Gal(b1-4)GlcNAc
# Method in brief: as §1
binder,measurement,setting,value
B1,glycan array binding signal (z-score),Fuc(a1-2)Gal,-0.211
same,glycan array binding signal (z-score),Fuc(a1-2)Gal(b1-3)GalNAc,-0.228
same,glycan array binding signal (z-score),[1],-0.173
same,glycan array binding signal (z-score),[2],-0.35
same,glycan array binding signal (z-score),[3],0.837
same,glycan array binding signal (z-score),[4],-0.4
same,glycan array binding signal (z-score),[5],-0.092
same,glycan array binding signal (z-score),Fuc(a1-2)Gal(b1-3)GlcNAc,-0.16
same,glycan array binding signal (z-score),[6],-0.025
same,glycan array binding signal (z-score),[7],-0.107
same,glycan array binding signal (z-score),[8],-0.098
same,glycan array binding signal (z-score),[9],-0.034
same,glycan array binding signal (z-score),[10],-0.24
same,glycan array binding signal (z-score),[11],-0.118
same,glycan array binding signal (z-score),[12],-0.071
same,glycan array binding signal (z-score),[13],-0.297
same,glycan array binding signal (z-score),[14],-0.057
same,glycan array binding signal (z-score),[15],0.019
same,glycan array binding signal (z-score),[16],-0.04
same,glycan array binding signal (z-score),[17],-0.335
same,glycan array binding signal (z-score),[18],0.027
same,glycan array binding signal (z-score),[19],0.816
same,glycan array binding signal (z-score),Fuc(a1-2)Gal(b1-4)Glc,-0.265
same,glycan array binding signal (z-score),Fuc(a1-2)Gal(b1-4)Glc6S,-0.077
same,glycan array binding signal (z-score),Fuc(a1-2)Gal(b1-4)GlcNAc,-0.154
same,glycan array binding signal (z-score),[20],0.234
same,glycan array binding signal (z-score),[21],0.092
same,glycan array binding signal (z-score),[22],0.045
same,glycan array binding signal (z-score),[23],-0.015
same,glycan array binding signal (z-score),[24],-0.269
